31 variants from the GPR68 mutational scans of Howard et al. (2025) can be followed below.

B1: GPR68, Q15743 (parent)
chain: MGNITADNSSMSCTIDHTIHQTLAPVVYVTVLVVGFPANCLSLYFGYLQIKARNELGVYLCNLTVADLFYICSLPFWLQYVLQHDNWSHGDLSCQVCGILLYENIYISVGFLCCISVDRYLAVAHPFRFHQFRTLKAAVGVSVVIWAKELLTSIYFLMHEEVIEDENQHRVCFEHYPIQAWQRAINYYRFLVGFLFPICLLLASYQGILRAVRRSHGTQKSRKDQIQRLVLSTVVIFLACFLPYHVLLLVRSVWEASCDFAKGVFNAYHFSLLLTSFNCVADPVLYCFVSETTHRDLARLRGACLAFLTCSRTGRAREAYPLGAPEASGKSGAQGEEPELLTKLHPAFQTPNSPGSGGFPTGRLA

In data set [1] the parent is B1. Briefly: cAMP reporter score (Enrich2 score, wild type = 0); higher = more signal; HEK293T, FACS bins.
Variants of B1 are the subject of data set [2]. Description: surface expression score (Enrich2 score, wild type = 0); higher = more signal; HEK293T, FACS bins.

Scores whose standard error is large were omitted. Not listed are two conditions whose scores span a narrow range. Names with del lack the residues named; names with ins carry added residues between the positions named. For part of these data: The data file names ogerin without a concentration.

Turning to P325S, the cAMP reporter score in data set [1] (pH 5.5) is -0.378; in data set [1] (pH 6) it was -1.54; in data set [1] (pH 6, modulator: ogerin), -0.498; in data set [1] (pH 6.5, modulator: ogerin) it was -1.02. Further, the surface expression score in data set [2] was -0.474.
Take P325D: the cAMP reporter score is 0.841 in data set [1] (pH 5.5); -0.355 in data set [1] (pH 6); 0.174 in data set [1] (pH 6, modulator: ogerin); 0.186 in data set [1] (pH 6.5, modulator: ogerin). In addition, the surface expression score in data set [2] amounted to 0.678.
The like results for P325W were, in that order, 1.23, 0.056, 0.805, 0.129 and -0.05.
With P325N, the cAMP reporter score in data set [1] (pH 5.5) was -0.395; in data set [1] (pH 6) it was -0.312; in data set [1] (pH 6, modulator: ogerin) it was 0.818. Moreover, in data set [2], the surface expression score turned out to be 2.81.
With P325T, the cAMP reporter score in data set [1] (pH 5.5) turned out to be 0.167; in data set [1] (pH 6), 0.03; in data set [1] (pH 6, modulator: ogerin) it was 1.23; in data set [1] (pH 6.5, modulator: ogerin), 0.465. For the same variant, the surface expression score in data set [2] was found to be 0.469.
On to P325V, for which the cAMP reporter score in data set [1] (pH 5.5) was 0.367; in data set [1] (pH 6, modulator: ogerin), 0.598; in data set [1] (pH 6.5, modulator: ogerin), 0.678. Also, the surface expression score in data set [2] amounted to 0.826.
Take P321_L322insGS: the cAMP reporter score worked out at 0.417 in data set [1] (pH 5.5); 0.849 in data set [1] (pH 6); 0.73 in data set [1] (pH 6, modulator: ogerin); 1.04 in data set [1] (pH 6.5, modulator: ogerin). The surface expression score in data set [2] stood at 0.392.
The like results for E326_A327insG were, in that order, 0.154, -0.38, 0.316, -0.107 and 0.972.
In the same order, the values of G329_K330insGSG are 0.649, 0.904, 0.732, 0.673 and 1.43.
In the same order, the values of A327R are 0.795, 0.078, 0.872, -0.058 and 1.46.
Take A327S: the cAMP reporter score was -0.559 in data set [1] (pH 5.5); -0.986 in data set [1] (pH 6); -1.12 in data set [1] (pH 6, modulator: ogerin); -0.91 in data set [1] (pH 6.5, modulator: ogerin). Moreover, the surface expression score in data set [2] is -0.831.
In the same order, the values of A327G are 0.308, -0.283, -0.001, 0.234 and 0.639.
In the case of A327D, the cAMP reporter score in data set [1] (pH 5.5) was 0.19; in data set [1] (pH 6), 0.246; in data set [1] (pH 6, modulator: ogerin), -0.068; in data set [1] (pH 6.5, modulator: ogerin), -0.619. Moreover, in data set [2], the surface expression score is -0.101.
In the same order, the values of A327Q are -0.231, -0.569, 0.308, -0.042 and 0.31.
With A327V, the cAMP reporter score in data set [1] (pH 5.5) was 0.381; in data set [1] (pH 6), -0.254; in data set [1] (pH 6, modulator: ogerin), 0.407; in data set [1] (pH 6.5, modulator: ogerin), 0.994. Also, the surface expression score in data set [2] was determined as 0.538.
In the same order, the values of A327W are 0.194, 0.05, -0.115, 0.045 and -0.321.
The like results for A327H were, in that order, 0.858, -1.45, 0, -0.413 and 0.685.
A327I: the cAMP reporter score in data set [1] (pH 5.5) was 0.662; in data set [1] (pH 6), 0.355; in data set [1] (pH 6, modulator: ogerin), 0.33; in data set [1] (pH 6.5, modulator: ogerin), 0.049. The surface expression score in data set [2] was determined as 0.266.
A327C: the cAMP reporter score in data set [1] (pH 5.5) is -0.346; in data set [1] (pH 6) it was 1.15; in data set [1] (pH 6, modulator: ogerin), -0.602; in data set [1] (pH 6.5, modulator: ogerin) it was 1.65. For the same variant, in data set [2], the surface expression score was -0.23.
A327L: the cAMP reporter score in data set [1] (pH 5.5) is -0.031; in data set [1] (pH 6, modulator: ogerin), -0.082; in data set [1] (pH 6.5, modulator: ogerin), -0.904. Moreover, the surface expression score in data set [2] is -0.071.
With A327Y, the cAMP reporter score in data set [1] (pH 5.5) is 0.176; in data set [1] (pH 6) it was 0.174; in data set [1] (pH 6, modulator: ogerin), 0.488; in data set [1] (pH 6.5, modulator: ogerin) it was -0.19. The surface expression score in data set [2] is -0.505.
The like results for A327K were, in that order, 0.241, 0.5, 0.835, 0.646 and -0.391.
In the same order, the values of A327F are 0.689, -0.152, 0.979, 0.366 and -0.041.
With A327P, the cAMP reporter score in data set [1] (pH 5.5) was found to be 0.427; in data set [1] (pH 6), 0.935; in data set [1] (pH 6, modulator: ogerin), 0.071; in data set [1] (pH 6.5, modulator: ogerin), 0.049. The surface expression score in data set [2] is 0.967.
In the same order, the values of A327M are 1.45, 0.176, 0.734, 0.821 and 0.61.
As for A327E, the cAMP reporter score in data set [1] (pH 5.5) worked out at 1.2; in data set [1] (pH 6) it was 1.53; in data set [1] (pH 6, modulator: ogerin), 1.06; in data set [1] (pH 6.5, modulator: ogerin) it was 2.06. For the same variant, in data set [2], the surface expression score was 1.52.
Regarding S328del, the cAMP reporter score stood at 0.22 in data set [1] (pH 5.5); 0.366 in data set [1] (pH 6); 0.084 in data set [1] (pH 6, modulator: ogerin); 1.38 in data set [1] (pH 6.5, modulator: ogerin). For the same variant, the surface expression score in data set [2] worked out at 0.782.
In the same order, the values of A327_G329del are 1.11, 1.03, 1.47, 0.828 and 0.056.
The like results for A324del were, in that order, -0.295, -1.18, -0.019, -0.261 and -0.477.
Consider Y320V, for which the cAMP reporter score in data set [1] (pH 5.5) was determined as 0.75; in data set [1] (pH 6, modulator: ogerin), 1.42; in data set [1] (pH 6.5, modulator: ogerin), 1.6. Also, in data set [2], the surface expression score was -0.089.
In the same order, the values of Y320W are 1.18, 1.03, -0.075 and 1.41.
